Laboratory results: PubChem BioAssay AID493208 (National Center for Advancing Translational Sciences (NCATS), 2011)
The whole screen tested about 44,000 compounds, of which about 340 (0.77%) were called active. Another 5% or so got no clear call; they are omitted. Calls come from the whole dose curve; as a rule, active = well fitted inhibition curve with a large enough effect; inconclusive = small, poorly fitted or top-dose-only effect; inactive = flat fitted curve, though single readings scatter. Some of the results follow.

Test: Acumen qHTS Assay for Inhibitors of the mTORC1 Signaling Pathway in MEF (Tsc2-/-, p53-/-) Cells: Sytravon; note: nearly all actives have a fitted effect of over 50% in size;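 for activity change, negative = inhibition: plate controls were DMSO for no effect and rapamycin for full effect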
Details: phospho-rpS6 immunofluorescence/PI, 24 h; series mostly up to 38.3 µM; activity change, negative = inhibition: at the top concentration
Method in brief: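 Compounds act on Tsc2-/-, p53-/- fibroblasts carrying an empty vector for 24 h before fixation and dual staining for phospho-S6 and DNA (propidium iodide). Values are percentages of cells above a rapamycin-defined pS6/PI threshold.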
Potency is the fitted concentration of half-maximal effect.

SMILES | activity change, negative = inhibition | Potency
Cc1cc(C)cc(OC(=O)c2cc(-c3ccc4c(c3)OCCO4)on2)c1 | inactive: 1.39% | –
CCC(=O)N1CCc2cc(S(=O)(=O)NCCC(=O)NC(C)c3ccccc3)ccc21 (centres undefined) | inactive: -0.591% | –
CC(=O)c1ccc(NC(=O)C(Cc2ccccc2)NS(=O)(=O)c2ccc3c(c2)CCC(=O)N3)cc1 (centres undefined) | inactive: 1.53% | –
CCOC(=O)c1ccc(N2C(=O)c3n[nH]c(C)c3C2c2cccc(Br)c2)cc1 (centres undefined) | – | active: 16.5 µM
COc1ccc(CNC(=O)Cn2nnc(-c3ccc(C(F)(F)F)cc3)n2)cc1 | inactive: 1.72% | –
COc1ccc(C(=O)c2cn(Cc3ccccc3F)c3cc4c(cc3c2=O)OCO4)cc1 | inactive: -14.6% | –
O=c1cc(-c2ccccc2)n2c(SCc3ccc(Cl)cc3)nnc2[nH]1 | inactive: -0.903% | –
CC(C)C(=O)NCC(c1ccc2c(c1)OCO2)N1CCN(c2ccccc2F)CC1 (centres undefined) | inactive: -10.7% | –
COc1ccc(-n2c3c(cc(-c4nc(-c5ccc(C)cc5)cs4)c2=O)C(=O)CC(C)(C)C3)cc1 | inactive: -7.98% | –
COc1ccccc1C(=O)Nc1ccc2oc(-c3cccc(Cl)c3Cl)nc2c1 | inactive: -1.01% | –
Cc1sc2c(c1C)c(=O)n(-c1ccc(Cl)cc1)c(=O)n2Cc1cc(=O)n2ccccc2n1 | inactive: -0.455% | –
CC1CCCN(C(=O)c2cc3c(=O)n(C)c4ccccc4c3s2)C1 (centres undefined) | inactive: 3.18% | –
COc1ccc(C2C(C(N)=O)=C(C)Nc3nc(SCc4ccccc4Cl)nn32)cc1OC (centres undefined) | inactive: -12.1% | –
CCOc1ccc(C(=O)NCc2nc3cccnc3n2Cc2ccc(F)cc2)cc1OCC | inactive: -14% | –
Cc1ccc(CNC(=O)c2nc(SCc3ccccc3F)ncc2Cl)cc1 | inactive: 3.23% | –
CCOC(=O)c1ccccc1NC(=O)CSc1nc2ccncc2[nH]1 | inactive: -13.6% | –
O=C(NCc1ccco1)c1ccc(Cn2c(SCc3ccc(F)cc3)nc3cccnc32)cc1 | inactive: -15.1% | –
CCC(=O)Nc1cc(-c2cccc(C)c2)nn1-c1ccccc1 | inactive: 8.48% | –
COc1ccc(N2CCN(Cc3nc4c(c(=O)[nH]c(=O)n4C)n3Cc3ccc(Cl)cc3)CC2)cc1 | inactive: -21.8% | –
Cc1cccc(-c2nc(SCC(=O)N3CCc4ccccc43)c3c(=O)n(C)c(=O)n(C)c3n2)c1 | inactive: -6.62% | –
CCOC(=O)CNc1nc(Oc2ccc(=O)n(C)n2)nc(N(CC)CC)n1 | inactive: 8.64% | –
CCOc1ccc(-n2c(SCC(=O)N3CCc4ccccc43)nc3c([nH]c4ccccc43)c2=O)cc1 | inactive: -0.401% | –
Cc1cccc(-c2nnc(SCc3cc(=O)c4cccc(Cl)c4[nH]3)n2C)c1 | inactive: 1.69% | –
COc1cccc2c1ncc1c(-c3ccc(C)cc3)nn(-c3cccc([N+](=O)[O-])c3)c12 | inactive: 0% | –
CCCN(Cc1cccs1)C(=O)Nc1ccc(OCC)cc1 | inactive: -1.45% | –

SMILES | activity change, negative = inhibition | Potency
COc1ccc(NC(=O)Cn2c(=O)c(-c3cc(C)ccc3NC(C)=O)nc3ccccc32)c(OC)c1 | inactive: -0.294% | –
Cc1ccc(C2CCN(C(=O)c3cnn(-c4cccc(Cl)c4)c3C3CCN(C(=O)OC(C)(C)C)CC3)C2)cc1 (centres undefined) | inactive: -26.8% | –
COc1ccc(NC(=O)N(CCC(C)C)C(C)c2cccs2)c(OC)c1 (centres undefined) | inactive: -14.3% | –
O=C(COc1ccccc1)NCc1ccc2c(c1)CCN2C(=O)c1ccc(Cl)cc1 | inactive: -11.5% | –
Cc1cc(=O)[nH]c2nnc(SCC(=O)Nc3ccc(OC(F)(F)F)cc3)n12 | inactive: -0.273% | –
COc1ccc(OC)c(NC(=O)c2cc(-c3ccc(Cl)s3)nc3ccccc23)c1 | inactive: -2.59% | –
NCc1nc2cccnc2n1Cc1ccccc1Cl | inactive: -18.8% | –
COc1ccccc1CNC(=O)CCc1c(C)nn(-c2ccc(N3CCOCC3)nn2)c1C | inactive: 2.61% | –
COc1ccc(NC(=O)CSc2nc3c([nH]c4ccccc43)c(=O)n2-c2ccccc2)c(OC)c1 | inactive: 8.83% | –
O=C(NCc1ccco1)c1ccc2c(c1)N(Cc1ccccc1)C(=O)c1ccccc1S2(=O)=O | inactive: -10.7% | –
COCCNc1ncnc2c1c(-c1ccccc1)cn2-c1ccc(C)c(Cl)c1 | inactive: 10.2% | –
COc1ccc(-n2ncc3c(NC(C)(C)CO)ncnc32)cc1 | inactive: 6.35% | –
CCOc1ccc(NC(=O)Cn2c3ncccc3c(=O)n2-c2ccc(CC)cc2)cc1 | inactive: 3.48% | –
Cc1ccc(CNC(=O)c2oc3c(c2C)-c2nn(Cc4ccc(Cl)cc4)cc2CC3)cc1 | inactive: 2.55% | –
CCN(CC)S(=O)(=O)c1ccc(NC(=O)NCc2noc3ccc(C)cc23)cc1 | inactive: -17.7% | –
Cc1nc2cccnc2n1C1CCN(S(C)(=O)=O)CC1 | inactive: 5.4% | –
Cc1cc(S(=O)(=O)C(CNC(=O)c2ccc(OC(C)C)cc2)c2cccs2)ccc1F (centres undefined) | inactive: 5.35% | –
Cc1ccc(-c2c(CN3CCN(c4cccc(C)c4)C(C)C3)csc2C)cc1 (centres undefined) | inactive: 4.31% | –
Cc1ccc2onc(CC(=O)N3CCN(c4ccc(F)cc4)CC3)c2c1 | inactive: -10.7% | –
CC(C)CC(=O)N1c2nc(C(C)C)nn2C2(CCCCC2)[C@@H]2CCCC[C@@H]21 | inactive: -0.144% | –
CN(CCCNC(=O)c1cc2c(Cl)nc3ccccc3c2s1)Cc1ccccc1 | – | active: 13.1 µM
Cc1c(Cl)cccc1NC(=O)CSc1ncc2c(n1)-c1ccccc1N(C)S2(=O)=O | inactive: 2.81% | –
Cc1cccc(C)c1OCC(=O)Nc1ncn[nH]1 | inactive: -9.64% | –
CCN(CC)CCNC(=O)c1c(C)oc2ncnc(N3CCOCC3)c12 | inactive: -9.4% | –
